Data as given in the supplement of paper PMC11417369.
The list shows a part of the results.

These sequences were tested on PfAP2-HC AP2 domain (GST-tagged) (assay: gcPBM binding intensity (ln(normalized median fluorescence intensity)); higher = stronger DNA binding).
Method in brief: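 After 1 h on an Agilent 4 × 180k array of primer-extended double-stranded 36-bp intergenic genomic probes and negative controls, bound GST-tagged P. falciparum DNA-binding domains were detected with Alexa488 anti-GST antibody and scanned at 488 nm. The domains had been expressed in E. coli, and binding took place in 1× PBS with 1% milk, 0.2 mg/ml BSA, 0.5% salmon testes DNA and 0.03% Triton X-100. Binding intensity is the highest Masliner-normalised natural-log median intensity across replicate spots of either probe orientation.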

Sequence	gcPBM binding intensity (ln)
GAATAATTAAAAGGTAGTACAAAGGTTATCAAAAGG [XGTACX_site8496]	9.73
GATATGATTATGTGATGGTGTTTTTGATAGATATTT [CACACA_negctrl_site1445]	9.87
TTGTTCTTTTGAAAGGTGCAAAAGAAAAATAATTAA	9.62
AGAAAACCGAAAGAGACACACAACATGTCGATTTAG [CACACA_site3764]	9.83
ATAATTTCTATTTCACAAAAAAAAAAAAAAAAAAAA [CACACA_negctrl_site1012]	8.74
ACTAAAAGGCTTAAATGTACATATTATATATATATA [XGTACX_site5897]	9.61
CTTTTTTTTTTGGGGGTGCATGCAAGACATATATTT [GTGCAC_site9660]	9.69
ACATAACTTATATATACACACAATACAAATATATAT [CACACA_site2774]	10.1
TTTAATTTTTATATAACACACATATTGTAATTATGT [CACACA_site4566]	9.92
ATGTTTAATTAAATATGTACTTATTATATTATATGT [XGTACX_site8137]	9.68
AGGAATCTACATATATGTACATATATTGATATATTT [XGTACX_site137]	9.79
TATATATGTAGACGTTGTACTTTTTTGTAAGTTTAA [XGTACX_site5638]	9.52
TTTAAATTTTTATATTGTACTTTATTTATTTATTTA [XGTACX_site869]	9.75
CATGACATATCCTGTAGTACAACGTATATATAAGAT [XGTACX_site2577]	9.74
AAAATAAAATCATAAAGTACAAAAAGAAAATAAAAA [XGTACX_site7376]	9.68
AATTTTCAATAGTATACACACAATTATATATATATA [CACACA_site1116]	9.77
TCTTTTCTCGGAAGGGTGCAAGGAATTAATGAAATA [GTGCAC_site9706]	9.4
TCAATAAATATACATACATGCATACATACATACATA [TGCATGCA_site197]	9.62
TGTGTTAATATGAATTTAAACATAAATAAATAAATA [CACACA_negctrl_site1589]	9.53
GAACATTTATTGTGTGTGCACAATTCTTTTTTAACC [GTGCAC_site9697]	9.98
AATAAAATATATTCCTGTACATATGATTCTTTTTTT [XGTACX_site7980]	9.69
TTTACATATTTATATACACACTTTTGCGTGCGTGGT [CACACA_site6647]	9.77
ATACATATATATATATGTACATATGTATTTTTTATT [XGTACX_site105]	9.84

Sequence	gcPBM binding intensity (ln)
ACTATACAGTTATACACACACATATATCTATAATAT [CACACA_site6283]	10.1
TAGTATAATATGAACACACACACACCGACAAAAAAA [CACACA_site5151]	10.5
AATTGAAAAAGAAATTGTACATTTTATTTTTATTAT [XGTACX_site1973]	9.54
ATATAATTTATATATTCACACAAGGAATACTTTTAT [CACACA_site5506]	9.68
TTTTATTTGACAAGCACACACTTAAATATATATATA [CACACA_site5792]	9.79
AAACAAAAAATAAAATGTACATTTATTACGATAAGT [XGTACX_site2392]	9.92
ATGGAATAATCACGTACACACAAGAAAAAAAAAAAT [CACACA_site527]	10
GGATAATATATTAGAACACACATATATATGTAAAAA [CACACA_site185]	9.9
ATTACAAATACAAACACACAAATGTTTTTCATTCAA [CACACA_site7639]	9.68
AGTAAATTTGATGGTCGTACAAAAAAAAAGTAGGAC [XGTACX_site2600]	9.78
ATATACATAATTTGGAGTACAATATCATATAAATAT [XGTACX_site6334]	9.61
TTTTTAATCAGAAATATTTATTAAAGAATTTTATAG [GTGCAC_negctrl_site725]	9.21
ACGAAGTATATGAATACACACATATTTTTAATGAAA [CACACA_site4070]	9.92
CATTTAAAATTTGTTTGTACATATATATATATATAT [XGTACX_site6729]	9.74
TTTTACAATAACAATACACACTATAATATGTAAATA [CACACA_site6772]	9.71
ATATATATATATATATGTACTTATGTCATCATTAAA [XGTACX_site5316]	9.62
TATATGTATGTTTGTGTGCACACATAAATATTATAT	10.2
GTATAAAATATTTTATGTACATAATATATATATATA [XGTACX_site2489]	9.56
AAATAAAGGAAATGTATATCAACATTAAAATAAGGC [CACACA_negctrl_site441]	9.99
ATTTCTATATATTGTGCATGCCATTACACCAAATAT [TGCATGCA_site813]	9.82
AGAATTTAGAAACAATGTTGTATATGTAATACCTTT [XGTACX_negctrl_site149]	9.61
GATATTATGTGTTTGGTATTTCGATCTTGTCAGGAC [CACACA_negctrl_site426]	9.65
TATATATATAAAAAAAGTACGTATTTAATAAAAATA [XGTACX_site4992]	9.88

Sequence	gcPBM binding intensity (ln)
TCATTTTACAGATGTGCATGTGAATCAATCTATTTA [TGCATGCA_site787]	9.56
AATATACAAATTACAAGTACAAATCAATATTATATG [XGTACX_site7521]	9.73
AAAAAAAAAAAAAAAACACACAAACAAATGAATAAA [CACACA_site5769]	9.93
GTATATAATTTATATTGTACGCATATTATTATCATT [XGTACX_site7277]	9.77
TGTAGTTTTTATTTATGTACGCATAACATAATTTAA [XGTACX_site104]	9.76
TATATATATAAATACACACACACATATATATATATA [CACACA_site4585]	10.3
ATCATACCTTTTAATGTACACACATTTCTTTTTTGT [CACACA_site8198]	10.4
TATATAAATAAAAAAAGTACATTACTTTTTAATTTA [XGTACX_site285]	9.44
TAGTATGATAACTTGGGTACATAAATATGGAGTATC [XGTACX_site1296]	9.72
TTTTTAATTCAAAAAACTGTATGTTATATGTCAAAT [CACACA_negctrl_site72]	9.3
TTCATTTTATTTTAAGTGCATATTTTTATTTTTTTG	9.66
AGAAAGGATATTATATGTACATATCTTTGTATTTTT [XGTACX_site5040]	9.97
CATACCCATAAACACACACACATATATACCTATATA [CACACA_site4745]	10.2
TGACAACATAGAGGGGCACACACATATATACATAAA [CACACA_site8550]	10.3
TAAAAGTATATATATACACACATAAATATATCTGTA [CACACA_site4537]	9.91
ATTTTTTTACAAAAATGTACACATGAAATATGTAAT [XGTACX_site1372]	9.47
TATTATTTTAGAATGCGTACTTATAAAATATTTTAT [XGTACX_site867]	9.54
GTGGAATAATATATATGTACATATTTAAAATATTTA [XGTACX_site3499]	9.62
AATGGTCTTTTCAACACACGTACATAAAAATATTAT [CACACA_site2571]	9.74
GTGTGATGGTCCAATATACACACTTAAAAAAAAAAA [CACACA_site2426]	9.5
TACTGTTATAAATGTGGTACTAATATTATACATATA [XGTACX_site5116]	9.59
TTAAATTATTAGAGAGTGCATTATATATATTATACA [GTGCAC_site9711]	9.29
TCTTTAATGATGTGTACACAAGAAAACATTGTTAAG [CACACA_site5299]	9.67

Sequence	gcPBM binding intensity (ln)
TAGAAGCATCATTTTACACACATGCAAATGTAAAAT [CACACA_site1893]	9.74
AAAAATAAGAGCGTAGCACACACGCATTTTATAAAT [CACACA_site8147]	9.81
ACATAAGAATTTTTATGTACTCATAATATTTTATAT [XGTACX_site2398]	9.62
GAAATATTTGTAAAAACATGCATGGTACTTTTAAAA [TGCATGCA_site6]	9.75
TACATACTAAAAAAATGTACTTGTATTGTTTTTTTA [XGTACX_site8357]	9.51
TATATATATATATACACATGCAAAAATTTTTAATTT [TGCATGCA_site82]	9.82
TTTCTATATGGATTTGCACACATAAAAATGCTTATA [CACACA_site8751]	9.77
TTATTTAACGTATTCTCACACATATATATATATAAT [CACACA_site5226]	9.84
ATATATATATATATATGTACATATGTTAGGATCAAA [XGTACX_site8626]	9.9
ATGACATATAAATATACACACATACGTAAGTATATT [CACACA_site5058]	9.79
TTATTGAACTTTTATAAAACCTGTATTATTATCTCT [CACACA_negctrl_site767]	9.71
TTATATTAATAATAAAGTACAAAAAATCATATATAA [XGTACX_site799]	9.67
TATTTCTTATTACATACACACATATACATATATGAC [CACACA_site3201]	9.83
TCCAGGCTACACTCTAGTACTCGTAGGGTTATGAGA [XGTACX_site4945]	9.44
ATATAATAACATAACACACACATGTATTTATAGGTG [CACACA_site359]	10.4
ACATTATAATATTATTGTACTATATATATAATATAT [XGTACX_site2291]	9.9
AAAAAAAAAAAAAAAACACACATATATATATAATAT [CACACA_site1159]	9.75
GATAATCAGAATGGGGTGCAAAGAAAAAAAAAAAAA	9.55
TTATATTTATATTTATGTACATATTTTGTGTGAAAA [XGTACX_site2367]	9.74
CCTAAATAATATCTATCACACACGCATATATACATA [CACACA_site8838]	9.96
